The IC50 comes from the fitted curve, where viability falls to half of the control; where the fit passes the top or lowest dose, that dose stands as a limit. AUC, from the same fit, is the share of area under the viability curve across the 256-fold dose range: 1 means no effect, lower means more sensitive.
Compound: NC1(c2ccc(-c3nc4ccn5c(=O)[nH]nc5c4cc3-c3ccccc3)cc2)CCC1 [MK-2206]
Test: Viability of human cancer cell lines after 72 h of drug (GDSC screen)
Description: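 Human cancer cell lines in 384-well plates, medium with 10% serum, drug for 72 h over a 256-fold dose range (nine 2-fold or five 4-fold steps up to the top dose). Adherent lines were fixed and stained with the nucleic acid dye Syto60, suspension lines read with resazurin; signal relative to control wells, capped at 0 and 100%. One two-parameter sigmoid per drug and line, fitted in a mixed model over all curves with the slope shared within a line.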

NCI-H720 (lung carcinoid, suspension, top dose 4 µM)
AUC: 0.702 | IC50: 0.875 µM

BE-13 (lymphoblastic leukaemia, suspension, top dose 4 µM)
AUC: 0.985 | IC50: > 4 µM

201T (lung adenocarcinoma, adherent, top dose 4 µM)
AUC: 0.837 | IC50: 3.72 µM

HuO-3N1 (osteosarcoma, adherent, top dose 4 µM)
AUC: 0.922 | IC50: > 4 µM

EFM-192A (breast, adherent, top dose 4 µM)
AUC: 0.653 | IC50: 0.7 µM

P12-ICHIKAWA (T-cell lymphoblastic leukaemia, suspension, top dose 4 µM)
AUC: 0.874 | IC50: 2.46 µM

SW626 (ovary, adherent, top dose 4 µM)
AUC: 0.953 | IC50: > 4 µM

CTV-1 (acute myeloid leukaemia, suspension, top dose 4 µM)
AUC: 0.858 | IC50: 2.31 µM

NCI-H1975 (lung adenocarcinoma, adherent, top dose 4 µM)
AUC: 0.648 | IC50: 0.686 µM

RL (B-cell lymphoma, suspension, top dose 4 µM)
AUC: 0.863 | IC50: 2.99 µM

786-0 (kidney, adherent, top dose 4 µM)
AUC: 0.886 | IC50: 3.79 µM

SK-ES-1 (Ewing sarcoma, semi-adherent, top dose 4 µM)
AUC: 0.824 | IC50: 2.58 µM

H2591 (mesothelioma, adherent, top dose 2 µM)
AUC: 0.95 | IC50: > 2 µM

Hs-578-T (breast, adherent, top dose 4 µM)
AUC: 0.766 | IC50: 1.57 µM

DB (B-cell lymphoma, suspension, top dose 4 µM)
AUC: 0.94 | IC50: > 4 µM

JJN-3 (haematopoietic neoplasm, suspension, top dose 4 µM)
AUC: 0.952 | IC50: > 4 µM

IGROV-1 (ovary, adherent, top dose 4 µM)
AUC: 0.609 | IC50: 0.574 µM

COLO-679 (melanoma, adherent, top dose 4 µM)
AUC: 0.964 | IC50: > 4 µM

MDA-MB-157 (breast, adherent, top dose 4 µM)
AUC: 0.901 | IC50: > 4 µM

SNU-387 (liver, adherent, top dose 4 µM)
AUC: 0.688 | IC50: 0.912 µM

SK-PN-DW (Ewing sarcoma, adherent, top dose 4 µM)
AUC: 0.758 | IC50: 1.44 µM

H-EMC-SS (chondrosarcoma, adherent, top dose 4 µM)
AUC: 0.548 | IC50: 0.352 µM

MOLM-16 (acute myeloid leukaemia, suspension, top dose 4 µM)
AUC: 0.483 | IC50: 0.226 µM

ES1 (Ewing sarcoma, adherent, top dose 4 µM)
AUC: 0.691 | IC50: 0.85 µM

CCK-81 (large intestine, adherent, top dose 4 µM)
AUC: 0.835 | IC50: 2.41 µM

MDA-MB-453 (breast, adherent, top dose 4 µM)
AUC: 0.862 | IC50: > 4 µM

U-118-MG (glioma, adherent, top dose 4 µM)
AUC: 0.965 | IC50: > 4 µM

YKG-1 (glioma, adherent, top dose 4 µM)
AUC: 0.924 | IC50: > 4 µM

RPMI-6666 (Hodgkin lymphoma, suspension, top dose 4 µM)
AUC: 0.894 | IC50: > 4 µM

SW1783 (glioma, adherent, top dose 4 µM)
AUC: 0.935 | IC50: > 4 µM

CAL-33 (head and neck, adherent, top dose 4 µM)
AUC: 0.692 | IC50: 0.866 µM

NCC010 (kidney, adherent, top dose 4 µM)
AUC: 0.859 | IC50: 3.73 µM

OCUB-M (breast, adherent, top dose 4 µM)
AUC: 0.691 | IC50: 0.787 µM

OSC-19 (head and neck, adherent, top dose 4 µM)
AUC: 0.887 | IC50: > 4 µM

Source: the supplement of paper PMC4967469
